Laboratory results taken from the RNAGym collection of RNA variant scans (doi:10.1093/nar/gkz1192).
Read counts are not given, so values of variants with three or more changes are uncertain.

B1: CPEB3 Ribozyme (parent)
chain: UAACAGGGGGCCACAGCAGAAGCGUUCACGUCGCAGCCCCUGUCAGAUUCUGGUGAAUCUGCGAAUUCUGCUGUAUAUCUC

Variants of: B1
Assay: self-cleavage, relative activity (ratio to wild type); higher = more cleavage; in vitro, sequencing
In short: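 Relative activity was defined as the cleaved/total read fraction for a variant divided by the same fraction for the unmutated ribozyme. CPEB3 self-cleaving ribozyme libraries were made by rounds of error-prone PCR, barcoded, and transcribed in vitro with T7 RNA polymerase for 5 hours at 37°C, and cleavage ran through transcription plus a 15 min DNase I step before EDTA. Illumina sequencing of template-switched reverse transcripts gave the reads, and DNA sequencing mapped the barcodes. Averages come from three batches, using variants with at least 5 reads.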

Row | Variant | self-cleavage
1 | G9A A15U U41C G42C G46U A56U | 0.06
2 | G9A A28G U54C A56G A65G U72G A77G | 0.21
3 | G8A U51C A64G A77G | 0.04
4 | G8U A45U U54A U72A U78C | 0.04
5 | G9A A20G A45C | 0.22
6 | G8C A15G U76C | 0.07
7 | G8U C37U A56U U60C | 0.04
8 | G8A U41A C62A G63A U74C | 0.19
9 | G8U C14A A15U U25C A45G | 0.05
10 | G8U A28U G33A | 0.07
11 | G9A A28G A47G U76A | 0.24
12 | G9A A18G A21G U41A G63U | 0.07
13 | G9A A21G U25C | 0.31
14 | G8A U31C U48C | 0.22
15 | G8U A28U G30A U49C C68U U80C | 0.03
16 | G8U A20G U25C A56G U78C | 0.17
17 | G8U G9A U26C U66C G70U | 0.06
18 | G9A A45G G52A U69C | 0.09
19 | G9A A13U G16C U25A U49C | 0.05
20 | G8U A18U U26G A47G U80A | 0.04
21 | G8U C29U A45C G46A A47G U72C | 0.06
22 | G9A A35U U58C A77U | 0.15
23 | G8U A13G U43A A57G C68U | 0.18
24 | G9A A28U A65G U69C | 0.17

Row | Variant | self-cleavage
25 | G8C A13U U31C | 0.17
26 | G8A U41C A45U G63C | 0.06
27 | G8U A18U U41C | 0.17
28 | G9A A18G U49C U54C U58C | 0.07
29 | G8A U58C G73A U78A | 0.08
30 | G8U G33A A64G | 0.1
31 | G8U C17U A45U A64U | 0.05
32 | G9A A20G U25C U74C | 0.07
33 | G8U U41C A45U A65U | 0.38
34 | G9A A13C U31A U41A A56U U69A | 0.21
35 | G9A A15U G42A | 0.06
36 | G8U U43C A56G A65U | 0.05
37 | G8C A21G G33A U51C G52A U80C | 0.05
38 | G8A U31A C32A C37G U72C | 0.05
39 | G8U A20G A47G U49A C62A U69C | 0.1
40 | G8U C50U U54C C81A | 0.22
41 | G8U G10A U72C | 0.33
42 | G8U A20U A35U U54C | 0.06
43 | G8U A21G U72A U80C | 0.06
44 | G8C U51C U58C C81A | 0.18
45 | G8U A20G A28G C32U A35U | 0.06
46 | G8U C11A A18U A20U A35G A65G | 0.04
47 | G9A A35G C38U U51G | 1.28
48 | G8U U43G A45U | 0.04

Row | Variant | self-cleavage
49 | G8U A21G C23A U54A U69A A75G C79U | 0.03
50 | G8A U31A U49A A56G U60A C68U | 0.05
51 | G8U U25C A45G U66C | 0.06
52 | G9A A45U U49C | 0.14
53 | G9A A20U U31C U54C U60A U72A | 0.06
54 | G8C U25A U78C | 0.2
55 | G8A U26C U66A | 0.06
56 | G8C U25A U67C U72C | 0.06
57 | G8U A47G G53A U80C | 0.24
58 | G8C C17U U51A G52U U72C | 0.08
59 | G8U A15G C37U A65C | 0.09
60 | G9A A47G G55U A57G U58A U72A | 0.05
61 | G8U U26A G63U | 0.04
62 | G9A A15U A28G U67C U69A U78C | 0.04
63 | G8A U43C U74C U80C | 0.46
64 | G8C A15U U31C | 0.08
65 | G8U A13U G30U U41A U51C A77U | 0.04
66 | G9A A15G A35G C38A U67A | 0.08
67 | G8U A18U A21G A35U U67C | 0.04
68 | G8C A56G G61C U80C | 0.06
69 | G8U U31C U60A U72C | 0.06
70 | G8U U43C U69A U72A | 0.05
71 | G9A A13G C62U | 0.12
72 | G8U U31A C50U U54C C81A | 0.08

Row | Variant | self-cleavage
73 | G8A U43C U48C | 0.3
74 | G8A U31C G61U A65G U67C U74C U76G | 0.02
75 | G9A A13G C14U A20G U41C U49C G55A | 0.06
76 | G8U A18G A28G A75G | 0.08
77 | G9A A18G U67C | 0.31
78 | G9A A18G U26A C62U | 0.04
79 | G8C C40U U58C U67C | 0.13
80 | G9A A28G U31C U43A U72G | 0.23
81 | G8C G24U C29U U66C | 0.16
82 | G9A A18U U25C U41C U69C A75U | 0.05
83 | G9A A13C C23A U51A U67C | 0.07
84 | G8C U25A A64G | 0.14
85 | G9A A28U A65G | 0.05
86 | G9A A13U U67A U78C | 0.16
87 | G8C A20U U26A | 0.22
88 | G8A U54A A57G U69A | 0.37
89 | G8U U43A A47U U48A A56U | 0.05
90 | G8C C23U U43A G70A G73U | 0.04
91 | G8U A18G A21U U54C | 0.05
92 | G8U A21G A56U U60A U66C U72C | 0.08
93 | G9A A18G U43C U49C U60A | 0.05
94 | G8U A13G U51A U76A | 0.08
95 | G8U A28G U80C | 0.09
96 | G9A A18G G22A | 0.33

Row | Variant | self-cleavage
97 | G9A A20G U51C U60A | 0.11
98 | G8U A20G A21G U74A U80C | 0.31
99 | G9A A18U U26C A28G U51C U72A | 0.08
100 | G9A A13U G30U G42A U51A U80C | 0.41
101 | G9A A20U U31C A45G A56G G63C | 0.04
102 | G8A U41C C59A U78C | 0.12
103 | G8A U31C A35U U67G | 0.1
104 | G8C U51C G63U | 0.08
105 | G9A A47G U48C G70A U76A | 0.08
106 | G8U C14A A35U U78G U80A | 0.03
107 | G8U U43A U69C U76C | 0.14
108 | G8U U54C A65G | 0.06
109 | G8U C40U U49A U69C U80C | 0.13
110 | G8U A13U U72A | 0.17
111 | G8A U31C U49C U54A U60C U72C U74C | 0.05
112 | G9A A15U A28G U43C A45G A56G | 0.21
113 | G9A A18U U25A A28G U58C | 0.12
114 | G8U U49C U51A A57G U69A U72A U80A | 0.05
115 | G8A U60C U66A | 0.07
116 | G8U A18U A20G A21G U80C | 0.4
117 | G8U U41A U74A | 0.16
118 | G9A A13G A21G A28U | 0.16
119 | G9A A13G U49G | 0.39
120 | G8U G30A A56U U60C | 0.05

Row | Variant | self-cleavage
121 | G9A A13G C14U A20G U41C A57G | 0.2
122 | G9A A15G A45G U72G | 0.2
123 | G8A U31C C62U A65G U74C | 0.04
124 | G8U A21U U69A U72C | 0.07
125 | G9A A15G G33U A64G U72A | 0.05
126 | G9A A21G U26C A35U U67C G70A | 0.04
127 | G8U U26A U41C U49C U51C | 0.17
128 | G8U U43A U49A | 0.08
129 | G8A U49C U54C A65G U67C U74C | 0.12
130 | G8U A15U A18U A20C | 0.22
131 | G9A A15G U26A A28U U58C | 0.06
132 | G8U A18G U67C | 0.09
133 | G8U U26A A35G | 0.22
134 | G9A A21U U66C U78C | 0.05
135 | G8U U26C U43A A45C C68A | 0.04
136 | G8A U60C U72C U80C | 0.07
137 | G8C U43C U76C | 0.36
138 | G8C C39U G52C U74C U76C | 0.09
139 | G8C U31A U51A | 0.3
140 | G8U U41G U72A | 0.11
141 | G8A U54C A56G A57G U72C | 0.15
142 | G8U C17U A28G C32U U43A | 0.05
143 | G9A A35U U80C | 0.08
144 | G8A U49C U60A | 0.15

Row | Variant | self-cleavage
145 | G9A A20G U41C G63C U69A U76C U78C | 0.05
146 | G8C C34G U48A | 0.2
147 | G9A A13G A15G G42C G55A G63A U80C | 0.06
148 | G8A U51C A56C G73U | 0.04
149 | G8U C14U A21U U26C | 0.03
150 | G8U U25C A45G U67C | 0.06
151 | G8C A13G C32U C44U U80C | 0.3
152 | G9A A18G U26C | 0.22
153 | G8U A21G U26A U48C U51A A65G | 0.03
154 | G9A A21U C38A | 0.17
155 | G8U U26C U51C A64U | 0.11
156 | G8U A13U C40A U43C | 0.05
157 | G8A U31A G36A | 0.06
158 | G9A A35U U60C | 0.11
159 | G8U A13U G33U A45G U48A A57U | 0.16
160 | G8C U26C U41C U54C | 0.05
161 | G8U A20G U26C U69C | 0.12
162 | G9A A18U A28U G30A U76C U80C | 0.07
163 | G8U U25C U26C A28U U54A U78C | 0.17
164 | G8U U31C U41C U58C | 0.12
165 | G8U A45G U67C | 0.06
166 | G8U A18G A28G A56G | 0.05
167 | G8U U31A C50U U51G U60C | 0.09
